The other results are listed elsewhere or left out.

The subject of one test is HSkMC. Put plainly: cytotoxicity call (relative viability < 0.9). The conditions noted are these: 10 µM.
In a further test the test system is HepG2. The test can be described thus: cytotoxicity call (relative viability < 0.9). The conditions noted are these: 10 µM.
In a further test the test system is S. aureus RN4220. Put plainly: growth inhibition call (relative growth <= 0.2). Particulars: 50 µM.

Regarding `C[C@@H]1CN([C@@H](C)CO)C(=O)c2cccc(NC(=O)C3CCOCC3)c2O[C@H]1CN(C)Cc1ccc(Oc2ccccc2)cc1`, the cytotoxicity call in the test with HSkMC and in the test on HepG2 was “inactive” each time. For the same compound, the growth inhibition call in the test on S. aureus RN4220 is “inactive”.

On to `C[C@H]1CCCCO[C@H](CN(C)C(=O)Nc2ccc3c(c2)OCO3)[C@@H](C)CN([C@@H](C)CO)C(=O)c2cc(NC(=O)c3ccncc3)ccc2O1`, for which the cytotoxicity call in the test with HSkMC and in the test on HepG2 was “inactive” each time. Besides, in the test with S. aureus RN4220, the growth inhibition call was “inactive”.

For `CCS(=O)(=O)N1CC[C@]2(CC1)CN([C@H](CO)c1c2c2ccc(cc2n1C)OC)C(=O)c1cccc(c1)F`, the cytotoxicity call in the test on HSkMC and in the test on HepG2 was “inactive” each time. The growth inhibition call with S. aureus RN4220 was “inactive”.

As for `C[C@@]12CCC[C@](C)(C(=O)O[C@@H]3O[C@H](CO)[C@@H](O)[C@H](O)[C@H]3O)[C@@H]1CC[C@]13C[C@H](CC[C@@H]12)[C@](O)(CO)C3`, the cytotoxicity call in the test with HSkMC and in the test with HepG2 was “inactive” throughout. In the test on S. aureus RN4220, the growth inhibition call was “inactive”.

For `N[C@@H]1CC(=O)N(c2ccc(F)cc2)C1`, the cytotoxicity call with HSkMC and with HepG2 was “inactive” throughout. Besides, the growth inhibition call in the test on S. aureus RN4220 is “inactive”.

For the compound `CCC(=O)NS(=O)(=O)c1ccccc1`, the cytotoxicity call with HSkMC and in the test with HepG2 was “inactive” in each case. Moreover, the growth inhibition call in the test on S. aureus RN4220 was “inactive”.

On to `Cc1noc(C)c1NC(=O)N(C)C[C@@H]1Oc2ccc(NC(=O)NC(C)C)cc2C(=O)N([C@H](C)CO)C[C@@H]1C`, for which the cytotoxicity call with HSkMC and in the test with HepG2 was “inactive” in each case. For the same compound, the growth inhibition call in the test on S. aureus RN4220 was “inactive”.

`C[C@@H]1CCCCO[C@H](CN(C)S(=O)(=O)c2ccccc2)[C@H](C)CN([C@H](C)CO)C(=O)c2cc(NC(=O)Nc3cccc4ccccc34)ccc2O1`: the cytotoxicity call with HSkMC and in the test on HepG2 was “inactive” in each case. The growth inhibition call in the test on S. aureus RN4220 was “inactive”.

Regarding `C=CCSCC(N)C(=O)O` (stereo not drawn), the cytotoxicity call with HSkMC and with HepG2 was “inactive” in each case. Moreover, the growth inhibition call with S. aureus RN4220 was “inactive”.

With `C[C@@H]1CN([C@@H](C)CO)C(=O)Cc2cc(NS(=O)(=O)c3cn(C)cn3)ccc2O[C@H]1CN(C)C(=O)Nc1ccccc1`, the cytotoxicity call with HSkMC and in the test with HepG2 was “inactive” in each case. Moreover, in the test on S. aureus RN4220, the growth inhibition call was “inactive”.

As to `C[C@H]1CN([C@@H](C)CO)C(=O)Cc2cc(NC(=O)Nc3cc(Cl)cc(Cl)c3)ccc2O[C@H]1CN(C)S(=O)(=O)c1ccc(Cl)cc1`, the cytotoxicity call in the test with HSkMC and in the test on HepG2 was “active” in each case. In the test on S. aureus RN4220, the growth inhibition call is “inactive”.

On to `NNC(=O)CCCCCC(=O)NO`, for which the cytotoxicity call in the test with HSkMC and in the test on HepG2 was “inactive” throughout. Moreover, the growth inhibition call with S. aureus RN4220 was “inactive”.

Consider `Cc1noc(C)c1S(=O)(=O)Nc1ccc2c(c1)C(=O)N([C@@H](C)CO)C[C@H](C)[C@H](CN(C)C)OCCCC[C@H](C)O2`, for which the cytotoxicity call in the test with HSkMC and in the test on HepG2 was “inactive” each time. In addition, the growth inhibition call with S. aureus RN4220 is “inactive”.

For `C[C@@H]1CN([C@H](C)CO)C(=O)Cc2cc(NC(=O)Nc3ccccc3)ccc2O[C@H]1CN(C)C(=O)Nc1cccc2ccccc12`, the cytotoxicity call in the test on HSkMC and with HepG2 was “inactive” in each case. In addition, the growth inhibition call in the test with S. aureus RN4220 is “inactive”.

Regarding `Cc1noc(C)c1NC(=O)N(C)C[C@@H]1Oc2ccc(NC(=O)C3CC3)cc2C(=O)N([C@H](C)CO)C[C@H]1C`, the cytotoxicity call with HSkMC and in the test on HepG2 was “inactive” throughout. Besides, the growth inhibition call in the test with S. aureus RN4220 was “inactive”.

On to `C[C@@H]1CN([C@H](C)CO)C(=O)c2cccc(NC(=O)c3nc4ccccc4s3)c2O[C@@H]1CN(C)C(=O)Nc1ccc(F)cc1`, for which the cytotoxicity call with HSkMC and in the test on HepG2 was “inactive” in each case. For the same compound, the growth inhibition call in the test with S. aureus RN4220 is “inactive”.

For `CCCC#Cc1cnc2c(c1)C(=O)N([C@@H](C)CO)C[C@H](C)[C@H](CN(C)C(=O)c1ccc3c(c1)OCO3)O2`, the cytotoxicity call in the test on HSkMC and in the test with HepG2 was “inactive” throughout. Further, the growth inhibition call with S. aureus RN4220 is “inactive”.

`CCC(=O)Nc1ccc2c(c1)OC[C@H](C)N(C(=O)CN1CCOCC1)C[C@H](C)[C@H](OC)CN(C)C2=O`: the cytotoxicity call in the test on HSkMC and in the test on HepG2 was “inactive” in each case. In addition, in the test on S. aureus RN4220, the growth inhibition call was “inactive”.

For `COc1ccc([C@@H]2CC=CC[C@H](C)Oc3ccccc3C(=O)N(C)[C@H](Cc3ccccc3)C(=O)N2)c(OC)c1`, the cytotoxicity call with HSkMC and with HepG2 was “inactive” in each case. The growth inhibition call in the test on S. aureus RN4220 is “inactive”.

Regarding `CO[C@@H]1CN(C)C(=O)c2ccc(NC(=O)C3CC3)cc2OC[C@@H](C)N(C(=O)C2CCOCC2)C[C@@H]1C`, the cytotoxicity call with HSkMC and in the test with HepG2 was “inactive” each time. Moreover, in the test with S. aureus RN4220, the growth inhibition call was “inactive”.

For the compound `C[C@H]1CCCCO[C@@H](CN(C)CC2CCCCC2)[C@@H](C)CN([C@@H](C)CO)C(=O)c2cc(NC(=O)C3CCCCC3)ccc2O1`, the cytotoxicity call in the test with HSkMC and in the test with HepG2 was “inactive” in each case. Further, the growth inhibition call in the test with S. aureus RN4220 is “inactive”.

Take `C[C@H]1CN([C@@H](C)CO)C(=O)c2cccc(NC(=O)Nc3ccc(C(F)(F)F)cc3)c2O[C@@H]1CN(C)CC1CCCCC1`: the cytotoxicity call with HSkMC and in the test with HepG2 was “active” each time. Moreover, the growth inhibition call with S. aureus RN4220 is “inactive”.

On to `CN(Cc1cnc2nc(N)nc(N)c2n1)c1ccc(C(=O)NC(CCC(=O)O)C(=O)O)cc1.O` (stereo not drawn), for which the cytotoxicity call in the test on HSkMC was “inactive”. In addition, the cytotoxicity call in the test with HepG2 is “active”. For the same compound, the growth inhibition call with S. aureus RN4220 was “inactive”.

`COc1ccc(NC(=O)Nc2ccc3c(c2)CC(=O)N([C@@H](C)CO)C[C@H](C)[C@@H](CN(C)S(C)(=O)=O)O3)cc1`: the cytotoxicity call in the test on HSkMC (human skeletal muscle cells) and with HepG2 was “inactive” each time. The growth inhibition call with S. aureus RN4220 is “inactive”.

Turning to `Cc1ccc(S(=O)(=O)Nc2ccc3c(c2)C(=O)N([C@@H](C)CO)C[C@@H](C)[C@H](CN(C)Cc2ccc4c(c2)OCO4)OCCCC[C@@H](C)O3)cc1`, the cytotoxicity call with HSkMC and in the test with HepG2 was “inactive” in each case. The growth inhibition call in the test with S. aureus RN4220 was “inactive”.

On to `CC(C)CC#Cc1cnc2c(c1)C(=O)N([C@H](C)CO)C[C@@H](C)[C@H](CN(C)C(=O)CCN1CCCCC1)O2`, for which the cytotoxicity call with HSkMC and in the test on HepG2 was “inactive” throughout. Moreover, in the test with S. aureus RN4220, the growth inhibition call is “inactive”.
